# Measured values taken from the supplement of paper PMC8728848.
# The other results are listed elsewhere or left out.
# B1: PX9961C-bth-497-22-497 (Bacteroides thetaiotaomicron) (protein)
# chain: DWLDLNTTSSVETGQAIVTLDDAQIALNGIYRLASGHSYYGDNYWYYGDCRAADVQARITKGDGKRVSPYYEYNVLASDNLNIVLPWNTVYKVIRQTNNLIQKIESGSIQSSDTKELNRIKSEALVMRGLSLFNLTRLFGMPYTNDKGASLGVPIETSPSDPTHKPSRSTVAQCYEQVVSDMSNALSGLRQETSNGYINYWAAQALLSRVYLNMGEYQKAYDAATDVIKNNGGRYQLYSYEEYPNVWGQDFQSESLFELYITLSEPSGGTGGEGAPMVYANEATVDWNNLILSEDFLNLLNEDPKDVRHCLTKESVIENNTGLPAAAMHEKVYLAKFPGKTGDDPKTNNICIIRLSEVYLNAAEAGLKKGTDIEEAQGYLNDIISRRTTDTSQQVSTETFTLDRILKERRKELVGEGEVFYDYLRNGLAIERKGSWHLETLKASNAQKIEATDLRIALPIPQSEIDANPNIQQNPR
# Tests used:
# Assay in all cases: glycan array binding signal (z-score within array); higher = stronger binding
# Settings in all cases: glycan notation: IUPAC condensed, linker removed
# [1] = target: Neu5Ac(a2-3)Gal(b1-3)[Fuc(a1-4)]GlcNAc
# How it was run: (§1)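 From the Consortium for Functional Glycomics database, 3228 arrays were curated, keeping only those whose protein sequence was available. Binding is given as a within-array Z-score averaged across arrays sharing a protein sequence and across linkers. Negative Z-scores can be read as non-binding.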
# [2] = target: Neu5Ac(a2-3)Gal(b1-3)[Fuc(a1-4)]GlcNAc(b1-3)Gal(b1-3)[Fuc(a1-4)]GlcNAc
# How it was run: as §1
# [3] = target: Neu5Ac(a2-3)Gal(b1-3)[Fuc(a1-4)]GlcNAc(b1-3)Gal(b1-4)[Fuc(a1-3)]GlcNAc
# How it was run: as §1
# [4] = target: Neu5Ac(a2-3)Gal(b1-3)[GlcNAc(b1-6)]GalNAc
# How it was run: as §1
# [5] = target: Neu5Ac(a2-3)Gal(b1-3)[Neu5Ac(a2-6)]GalNAc
# How it was run: as §1
# [6] = target: Neu5Ac(a2-3)Gal(b1-3)[Neu5Ac(a2-6)]GlcNAc(b1-3)[Fuc(a1-3)[Gal(b1-4)]GlcNAc(b1-6)]Gal(b1-4)Glc
# How it was run: as §1
# [7] = target: Neu5Ac(a2-3)Gal(b1-3)]Neu5Ac(a2-3)Gal(b1-4)]GlcNAc
# How it was run: as §1
# Neu5Ac(a2-3)Gal(b1-4)Glc = target: Neu5Ac(a2-3)Gal(b1-4)Glc
# How it was run: as §1
# [8] = target: Neu5Ac(a2-3)Gal(b1-4)GlcNAc
# How it was run: as §1
# [9] = target: Neu5Ac(a2-3)Gal(b1-4)GlcNAc(b1-2)Man
# How it was run: as §1
# [10] = target: Neu5Ac(a2-3)Gal(b1-4)GlcNAc(b1-2)Man(a1-3)[GlcNAc(b1-4)][Neu5Ac(a2-3)Gal(b1-4)GlcNAc(b1-2)Man(a1-6)]Man(b1-4)GlcNAc(b1-4)GlcNAc
# How it was run: as §1
# [11] = target: Neu5Ac(a2-3)Gal(b1-4)GlcNAc(b1-2)Man(a1-3)[Neu5Ac(a2-3)Gal(b1-4)GlcNAc(b1-2)Man(a1-6)]Man(b1-4)GlcNAc(b1-4)GlcNAc
# How it was run: as §1
# [12] = target: Neu5Ac(a2-3)Gal(b1-4)GlcNAc(b1-2)Man(a1-3)[Neu5Ac(a2-3)Gal(b1-4)GlcNAc(b1-2)Man(a1-6)]Man(b1-4)GlcNAc(b1-4)[Fuc(a1-6)]GlcNAc
# How it was run: as §1
# [13] = target: Neu5Ac(a2-3)Gal(b1-4)GlcNAc(b1-2)Man(a1-3)[Neu5Ac(a2-6)Gal(b1-4)GlcNAc(b1-2)Man(a1-6)]Man(b1-4)GlcNAc(b1-4)GlcNAc
# How it was run: as §1
# [14] = target: Neu5Ac(a2-3)Gal(b1-4)GlcNAc(b1-2)[Neu5Ac(a2-3)Gal(b1-4)GlcNAc(b1-4)]Man(a1-3)[GlcNAc(b1-4)][Neu5Ac(a2-3)Gal(b1-4)GlcNAc(b1-2)[Neu5Ac(a2-3)Gal(b1-4)GlcNAc(b1-6)]Man(a1-6)]Man(b1-4)GlcNAc(b1-4)GlcNAc
# How it was run: as §1
# [15] = target: Neu5Ac(a2-3)Gal(b1-4)GlcNAc(b1-2)[Neu5Ac(a2-3)Gal(b1-4)GlcNAc(b1-4)]Man(a1-3)[GlcNAc(b1-4)][Neu5Ac(a2-3)Gal(b1-4)GlcNAc(b1-4)Man(a1-6)]Man(b1-4)GlcNAc(b1-4)GlcNAc
# How it was run: as §1
# [16] = target: Neu5Ac(a2-3)Gal(b1-4)GlcNAc(b1-2)[Neu5Ac(a2-3)Gal(b1-4)GlcNAc(b1-6)]Man(a1-6)[Neu5Ac(a2-3)Gal(b1-4)GlcNAc(b1-2)Man(a1-3)]Man(b1-4)GlcNAc(b1-4)GlcNAc
# How it was run: as §1
# [17] = target: Neu5Ac(a2-3)Gal(b1-4)GlcNAc(b1-2)[Neu5Ac(a2-3)Gal(b1-4)GlcNAc(b1-6)]Man(a1-6)[Neu5Ac(a2-3)Gal(b1-4)GlcNAc(b1-2)Man(a1-3)][GlcNAc(b1-4)]Man(b1-4)GlcNAc(b1-4)GlcNAc
# How it was run: as §1
# [18] = target: Neu5Ac(a2-3)Gal(b1-4)GlcNAc(b1-3)Gal
# How it was run: as §1
# [19] = target: Neu5Ac(a2-3)Gal(b1-4)GlcNAc(b1-3)Gal(b1-3)GlcNAc
# How it was run: as §1
# [20] = target: Neu5Ac(a2-3)Gal(b1-4)GlcNAc(b1-3)Gal(b1-4)GlcNAc
# How it was run: as §1
# [21] = target: Neu5Ac(a2-3)Gal(b1-4)GlcNAc(b1-3)Gal(b1-4)GlcNAc(b1-2)Man(a1-3)[Neu5Ac(a2-3)Gal(b1-4)GlcNAc(b1-3)Gal(b1-4)GlcNAc(b1-2)Man(a1-6)]Man(b1-4)GlcNAc(b1-4)GlcNAc
# How it was run: as §1
# [22] = target: Neu5Ac(a2-3)Gal(b1-4)GlcNAc(b1-3)Gal(b1-4)GlcNAc(b1-3)Gal(b1-4)GlcNAc
# How it was run: as §1
# [23] = target: Neu5Ac(a2-3)Gal(b1-4)GlcNAc(b1-3)Gal(b1-4)GlcNAc(b1-3)Gal(b1-4)GlcNAc(b1-2)Man(a1-3)[Neu5Ac(a2-3)Gal(b1-4)GlcNAc(b1-3)Gal(b1-4)GlcNAc(b1-3)Gal(b1-4)GlcNAc(b1-2)Man(a1-6)]GalNAc
# How it was run: as §1
# [24] = target: Neu5Ac(a2-3)Gal(b1-4)GlcNAc(b1-3)Gal(b1-4)GlcNAc(b1-3)GalNAc
# How it was run: as §1
# [25] = target: Neu5Ac(a2-3)Gal(b1-4)GlcNAc(b1-3)Gal(b1-4)GlcNAc(b1-3)[Neu5Ac(a2-3)Gal(b1-4)GlcNAc(b1-3)Gal(b1-4)GlcNAc(b1-6)]GalNAc
# How it was run: as §1
# [26] = target: Neu5Ac(a2-3)Gal(b1-4)GlcNAc(b1-3)Gal(b1-4)GlcNAc(b1-6)[Gal(b1-3)]GalNAc
# How it was run: as §1
# [27] = target: Neu5Ac(a2-3)Gal(b1-4)GlcNAc(b1-3)Gal(b1-4)[Fuc(a1-3)]GlcNAc
# How it was run: as §1
# [28] = target: Neu5Ac(a2-3)Gal(b1-4)GlcNAc(b1-3)GalNAc
# How it was run: as §1
# [29] = target: Neu5Ac(a2-3)Gal(b1-4)GlcNAc(b1-3)[Neu5Ac(a2-3)Gal(b1-4)GlcNAc(b1-6)]GalNAc
# How it was run: as §1
binder,measurement,setting,value
B1,glycan array binding signal (z-score),[1],-0.629
same,glycan array binding signal (z-score),[2],2.16
same,glycan array binding signal (z-score),[3],-0.333
same,glycan array binding signal (z-score),[4],-0.029
same,glycan array binding signal (z-score),[5],-0.545
same,glycan array binding signal (z-score),[6],-0.322
same,glycan array binding signal (z-score),[7],-0.482
same,glycan array binding signal (z-score),Neu5Ac(a2-3)Gal(b1-4)Glc,-0.045
same,glycan array binding signal (z-score),[8],-0.558
same,glycan array binding signal (z-score),[9],-0.404
same,glycan array binding signal (z-score),[10],-0.279
same,glycan array binding signal (z-score),[11],-0.106
same,glycan array binding signal (z-score),[12],-0.32
same,glycan array binding signal (z-score),[13],-0.587
same,glycan array binding signal (z-score),[14],-0.104
same,glycan array binding signal (z-score),[15],-0.502
same,glycan array binding signal (z-score),[16],0.379
same,glycan array binding signal (z-score),[17],-0.163
same,glycan array binding signal (z-score),[18],0.136
same,glycan array binding signal (z-score),[19],-0.865
same,glycan array binding signal (z-score),[20],-0.432
same,glycan array binding signal (z-score),[21],-0.402
same,glycan array binding signal (z-score),[22],0.052
same,glycan array binding signal (z-score),[23],0.868
same,glycan array binding signal (z-score),[24],-0.499
same,glycan array binding signal (z-score),[25],0.407
same,glycan array binding signal (z-score),[26],-0.285
same,glycan array binding signal (z-score),[27],-0.485
same,glycan array binding signal (z-score),[28],-0.534
same,glycan array binding signal (z-score),[29],-0.32
